{"source": "PubChem BioAssay AID1346428", "about": "(National Center for Advancing Translational Sciences (NCATS), 2018)", "note": "Screen size: about 48,000 compounds; about 1,200 (2.5%) were called active. About 2% were inconclusive and are not listed.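 Rule for the calls: active = activation of at least 60% and not above a set upper limit (about 1 call in 100 departs from these limits); inconclusive = activation of 40% to 60%, or above that upper limit; inactive = activation under 40%.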 The list shows a part of the results.", "data": [{"target": "Probable G-protein coupled receptor 32 (Homo sapiens) (UniProt O75388)", "sequence (O75388 whole entry, looked up)": "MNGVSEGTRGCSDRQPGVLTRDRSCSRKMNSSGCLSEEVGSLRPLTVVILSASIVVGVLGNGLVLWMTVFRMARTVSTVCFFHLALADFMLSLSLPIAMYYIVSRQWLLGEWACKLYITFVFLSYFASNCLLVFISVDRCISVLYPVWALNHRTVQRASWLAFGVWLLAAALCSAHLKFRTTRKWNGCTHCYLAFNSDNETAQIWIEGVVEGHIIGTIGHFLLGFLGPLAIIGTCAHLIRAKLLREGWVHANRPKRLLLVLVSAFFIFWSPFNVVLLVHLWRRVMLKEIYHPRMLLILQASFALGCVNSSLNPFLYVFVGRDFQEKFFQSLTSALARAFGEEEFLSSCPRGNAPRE", "experiment": "qHTS for Agonists of Human Resolvin D1 Receptor DRV1; note: 0% is about no effect", "details": "CHO-K1 GPR32 beta-arrestin PathHunter luminescence, 90 min; at 76.9 µM; hits give high values; zero percent set by DMSO-only wells", "method_in_brief": "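Luminescent readout of beta-Gal complementation quantifies ligand-induced beta-arrestin association with GPR32 in CHO-K1 cells; 90 min compound incubation at 37 °C, detection 1 h at room temperature.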", "values": [{"smiles": "Cc1ccc(-c2n[nH]c3c2C(c2cccc(O)c2)N(c2ccc(C(=O)O)cc2)C3=O)cc1", "note": "(stereo not drawn)", "activation": "inactive: -19.7%"}, {"smiles": "COc1ccc(CNC(=O)C2CCCN(C(=O)N3CCOc4ccccc43)C2)cc1", "note": "(stereo not drawn)", "activation": "inactive: -7.89%"}, {"smiles": "COc1cc(C2SC[C@H]3C(=O)N(c4ccccc4)C(=O)N23)cc(OC)c1OC", "note": "(stereo partly drawn)", "activation": "inactive: 17.1%"}, {"smiles": "O=C(Oc1ccccc1)c1cccc(C(=O)Oc2ccccc2)c1", "activation": "inactive: 17.2%"}, {"smiles": "O=C(Cn1nc(N2CCN(c3ccccc3)CC2)ccc1=O)Nc1ccc(F)cc1F", "activation": "inactive: -9.33%"}, {"smiles": "Cc1ccccc1-c1nc(CN2CCC(C(=O)NCCc3ccccc3)CC2)c(C)o1", "activation": "inactive: -1.91%"}, {"smiles": "O=C(CCCn1c(=O)c2ccccc2n(CC(=O)Nc2cccc(C(F)(F)F)c2)c1=O)NCc1ccc2c(c1)OCO2", "activation": "inactive: -2.24%"}, {"smiles": "CCCN(CCC)S(=O)(=O)c1ccc2c(c1)N(CC(=O)NCc1ccc(F)cc1Cl)C(=O)CS2", "activation": "inactive: -31.7%"}, {"smiles": "COc1ccc(-n2nc(C(=O)N3CCCC(C)C3)c3c4ccccc4n(C)c3c2=O)cc1", "note": "(stereo not drawn)", "activation": "inactive: -0.167%"}, {"smiles": "O=C(c1ccccc1)n1nc(-c2ccccc2)nc1NCc1ccc(F)cc1", "activation": "inactive: -12%"}, {"smiles": "CCc1ccc(C(=O)c2cn(CC(=O)NC3CCCCC3)c3nc(C)ccc3c2=O)cc1", "activation": "inactive: 27.5%"}, {"smiles": "O=C(Nc1ccc(F)c(F)c1)c1cc(S(=O)(=O)NC2CCCCCC2)ccc1F", "activation": "inactive: -10.3%"}, {"smiles": "CCOC(=O)c1cc2c(=O)n3ccccc3nc2n(C(C)C)c1=NC(=O)c1cc2ccccc2o1", "activation": "inactive: 31.9%"}, {"smiles": "COc1ccc(CNC(=O)CN2C(=O)COc3ccc(S(=O)(=O)Nc4ccccc4)cc32)cc1", "activation": "inactive: 4.83%"}, {"smiles": "CCOc1ccc(N2CC(NC(=O)/C=C\\c3ccc4c(c3)OCO4)CC2=O)cc1", "note": "(stereo not drawn)", "activation": "inactive: -7.14%"}, {"smiles": "CNC(=O)c1c(NC(=O)c2ccc(S(=O)(=O)N3CCCCC3)cc2)sc2c1CCC2", "activation": "inactive: -37.3%"}, {"smiles": "CCOC(=O)c1sc2ccccc2c1S(=O)(=O)Nc1ccc(CC)cc1", "activation": "inactive: -31.4%"}, {"smiles": "COc1ccc(-c2cc(C(F)(F)F)nc(S(C)(=O)=O)n2)cc1", "activation": "active: 109%"}, {"smiles": "CC(C)(C)C(=O)Nc1ccc2nc(SCC(=O)N3CCOCC3)sc2c1", "activation": "inactive: -2.15%"}, {"smiles": "CSc1nc2c(c(=O)[nH]1)C(c1cccc(F)c1F)CC(=O)N2", "note": "(stereo not drawn)", "activation": "inactive: -13.2%"}, {"smiles": "O=S(=O)(Nc1cc(F)ccc1F)c1ccc2[nH]c3c(c2c1)CCCC3", "activation": "inactive: 24.6%"}, {"smiles": "COc1ccc(NS(=O)(=O)c2cc(Br)cc3c2N(C(=O)C2CC2)CC3)cc1OC", "activation": "inactive: 16.7%"}, {"smiles": "CC(C)c1ccc(NC(=O)CS(=O)(=O)c2cccc3nsnc23)cc1", "activation": "inactive: -2.51%"}, {"smiles": "COc1cccc(CNC(=O)c2ccc3c(c2)c(C)c(C)n3Cc2ccccc2)c1OC", "activation": "inactive: -15.3%"}, {"smiles": "CCCCN(CCCC)CCNC(=O)Cn1nc(C)n2c(cc3sccc32)c1=O", "activation": "inactive: -0.832%"}, {"smiles": "Cn1cc(C2=C(c3ccc(Cl)cc3Cl)C(=O)NC2=O)c2ccccc21", "activation": "inactive: -34.8%"}, {"smiles": "COc1ccc(-c2cc(C(F)(F)F)nc(SCCC(=O)Nc3ccccc3F)n2)cc1", "activation": "inactive: -2.21%"}, {"smiles": "Cc1ccc2occ(CC(=O)N(Cc3ccc(Cl)cc3)C3CCS(=O)(=O)C3)c2c1", "note": "(stereo not drawn)", "activation": "inactive: -8.8%"}, {"smiles": "O=c1c2oc3ccccc3c2n(Cc2cccc(Cl)c2)c(=O)n1Cc1ccco1", "activation": "inactive: -4.65%"}, {"smiles": "CCOC(=O)c1ccccc1NC(=O)CSc1ccc(-c2cccs2)nn1", "activation": "inactive: -19.8%"}, {"smiles": "Cc1cc(-c2nc3ncccc3o2)ccc1NC(=O)COc1ccccc1C", "activation": "inactive: 3.06%"}, {"smiles": "O=C(Cc1ccccc1)NC1CC(=O)N(c2ccccc2)C1", "note": "(stereo not drawn)", "activation": "inactive: -9.06%"}, {"smiles": "Cc1cccc(OCC(=O)Nc2nc3c(s2)CC(C(C)(C)C)CC3)c1C", "note": "(stereo not drawn)", "activation": "inactive: -0.447%"}, {"smiles": "COc1ccccc1N1CCN(C(=O)CN2C(=O)COc3ccc(S(=O)(=O)N4CCCCCC4)cc32)CC1", "activation": "inactive: -1.21%"}, {"smiles": "CCc1ccc(Nc2nn(-c3ccc(OC(F)(F)F)cc3)nc2C(C)=O)cc1", "activation": "inactive: 3.69%"}, {"smiles": "Cc1ccc(-c2noc(CNS(=O)(=O)c3ccc(F)cc3)n2)cc1", "activation": "inactive: -11.2%"}, {"smiles": "Cn1cc(S(=O)(=O)c2cccc(Cl)c2)c(=O)c2cc(F)c(N3CCN(c4ccc(F)cc4)CC3)cc21", "activation": "inactive: -4.26%"}, {"smiles": "Cc1nnc(N2CCN(C(=O)NC(C)C)CC2)c2nn(-c3ccccc3)c(C)c12", "activation": "inactive: 8.51%"}, {"smiles": "Cc1c(NC(=O)c2cc(-c3ccc(F)cc3)on2)c(=O)n(-c2ccccc2)n1C", "activation": "inactive: 0.945%"}, {"smiles": "CCN(CC)c1ccc(NC(=O)c2cnc3c(-c4ccccc4)c(C)nn3c2C)c(C)c1", "activation": "inactive: -13%"}, {"smiles": "COc1ccc(S(=O)(=O)c2cn(CC(=O)Nc3cc(C)ccc3C)c3ccccc3c2=O)cc1", "activation": "inactive: 10.9%"}, {"smiles": "COc1ccc(S(=O)(=O)n2nc(-c3ccco3)nc2NCc2ccc(N(C)C)cc2)cc1", "activation": "inactive: -7.56%"}, {"smiles": "Cc1ccc(CNC(=O)N2CCC(CN3CCC(C)CC3)CC2)cc1", "activation": "inactive: 3.23%"}, {"smiles": "CCN1CCN(Cc2nc3cc(NC(=O)c4cc(OC)c(OC)c(OC)c4)ccc3n2CC)CC1", "activation": "inactive: -0.243%"}, {"smiles": "CCC1CN(C(=O)NCc2ccc(C)cc2)c2cc(Cl)ccc2O1", "note": "(stereo not drawn)", "activation": "inactive: -20.5%"}, {"smiles": "COc1ccc(NC(=O)Cn2cnc3sc(C)c(S(=O)(=O)N4CCN(c5ccccc5OC)CC4)c3c2=O)cc1OC", "activation": "inactive: 6.52%"}, {"smiles": "Cc1ccc2scc(N3CCc4ccccc4C3)c(=O)c2c1", "activation": "inactive: -43.2%"}, {"smiles": "CCc1ccccc1NC(c1nnc(-c2cccc(F)c2)o1)c1ccc(F)cc1Cl", "note": "(stereo not drawn)", "activation": "inactive: -28.6%"}, {"smiles": "CC(C)c1ccc(NC(=O)CN2C(=O)COc3ccc(S(=O)(=O)N4CCCCC4)cc32)cc1", "activation": "inactive: -21.4%"}, {"smiles": "Cc1ccc(C)c(N2CCN(C(=O)Cn3ncc4c(=O)oc5ccccc5c43)CC2)c1", "activation": "inactive: 3.02%"}, {"smiles": "COc1cc(OC)cc(-c2nc3nc(C)c(CCC(=O)Nc4ccc(C)c(C)c4)c(C)n3n2)c1", "activation": "inactive: -2.8%"}, {"smiles": "COc1cccc(C(=O)N2CCN(CCc3ccncc3)CC2)c1", "activation": "inactive: -9.22%"}, {"smiles": "CN(C)c1ccc(CNC(=O)c2cccc(NC(=O)N3CCSc4ncccc43)c2)cc1", "activation": "inactive: 3.44%"}]}]}
